According to the supplement of paper PMC4604168 (melanoma cell lines):
This is one part of the list. Repeats are few or missing, and single values can be far off.

System: SkMel5
Assay: cell count relative to DMSO control; melanoma cells; higher = more viable cells
Details: library dose: standard library concentration; 72 h
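Note: cells treated in 1,536-well plates, then fixed and DAPI-stained, with nuclei counted from automated high-throughput microscope images.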

Structure (SMILES) | cell count
Clc1ccc(Nc2nnc(Cc3ccncc3)c3ccccc23)cc1 [vatalanib] + O=S(=O)(c1ccccc1)N(CC(F)(F)F)c1ccc(C(O)(C(F)(F)F)C(F)(F)F)cc1 [T0901317] (first compound 10 µM, partner dose 7 µM) | 66.6%
Clc1ccc(Nc2nnc(Cc3ccncc3)c3ccccc23)cc1 [vatalanib] + Oc1cc(-c2nc(-c3ccccc3)[nH]c2-c2ccncc2)ccc1Cl [L779450] (first compound 10 µM, partner dose 1 µM) | 49.6%
OCc1c[nH]c2ccccc12 [Indole-3-carbinol] + O=S(=O)(c1ccccc1)N(CC(F)(F)F)c1ccc(C(O)(C(F)(F)F)C(F)(F)F)cc1 [T0901317] (first compound 4 µM, partner dose 7 µM) | 83.1%
Clc1ccc(Nc2nnc(Cc3ccncc3)c3ccccc23)cc1 [vatalanib] + COC(=O)c1sccc1S(=O)(=O)Nc1ccc(Nc2ccccc2)cc1OC [GSK0660] (first compound 10 µM, partner dose 5 µM) | 63.6%
OCc1c[nH]c2ccccc12 [Indole-3-carbinol] + NCC(=O)Nc1ccc(-n2nc(C(F)(F)F)cc2-c2ccc3c(ccc4ccccc43)c2)cc1 [OSU03012] (first compound 4 µM, partner dose 5 µM) | 38.2%
Clc1ccc(Nc2nnc(Cc3ccncc3)c3ccccc23)cc1 [vatalanib] + CCN(CC)CCCCNc1ncc2cc(-c3cc(OC)cc(OC)c3)c(NC(=O)NC(C)(C)C)nc2n1 [PD173074] (first compound 10 µM, partner dose 0.5 µM) | 69.7%
OCc1c[nH]c2ccccc12 [Indole-3-carbinol] + CC(C)CCN1c2nc(Nc3cc(F)c(O)c(F)c3)ncc2N(C)C(=O)C1C [BID1870] (first compound 4 µM, partner dose 1 µM) | 78%
OCc1c[nH]c2ccccc12 [Indole-3-carbinol] + O=C(O)C(=O)Nc1sc2c(c1C(=O)O)CCNC2 [TCS401] (first compound 4 µM, partner dose 8.33333 µM) | 82.8%
Clc1ccc(Nc2nnc(Cc3ccncc3)c3ccccc23)cc1 [vatalanib] + COc1cc(N2CCC(N3CCN(C)CC3)CC2)ccc1Nc1ncc(Cl)c(Nc2ccccc2S(=O)(=O)C(C)C)n1 [NVP-TAE684] (first compound 10 µM, partner dose 0.4 µM) | 72.2%
OCc1c[nH]c2ccccc12 [Indole-3-carbinol] + COc1ccc2c(c1)CCC1C2CCC2(C)C(NCCCCCCN3C(=O)C=CC3=O)CCC12 [U73122] (first compound 4 µM, partner dose 2 µM) | 55.2%
OCc1c[nH]c2ccccc12 [Indole-3-carbinol] + N#Cc1c(O)c2c(-c3ccc(-c4ccccc4O)cc3)csc2[nH]c1=O [A769662] (first compound 4 µM, partner dose 10 µM) | 98.7%
OCc1c[nH]c2ccccc12 [Indole-3-carbinol] + CCN(CC)CCCCNc1ncc2cc(-c3cc(OC)cc(OC)c3)c(NC(=O)NC(C)(C)C)nc2n1 [PD173074] (first compound 4 µM, partner dose 0.5 µM) | 108%
OCc1c[nH]c2ccccc12 [Indole-3-carbinol] + Oc1cc(-c2nc(-c3ccccc3)[nH]c2-c2ccncc2)ccc1Cl [L779450] (first compound 4 µM, partner dose 1 µM) | 44.1%
Clc1ccc(Nc2nnc(Cc3ccncc3)c3ccccc23)cc1 [vatalanib] + O=c1cc(-c2cccc3c2Sc2ccccc2S3)oc(N2CCOCC2)c1 [KU55933] (first compound 10 µM, partner dose 5 µM) | 65.6%
OCc1c[nH]c2ccccc12 [Indole-3-carbinol] + O=C1NC(=O)/C(=C/c2ccc(-c3ccc(F)cc3O)o2)S1 [AS252424] (first compound 4 µM, partner dose 5 µM) | 70.1%
OCc1c[nH]c2ccccc12 [Indole-3-carbinol] + CCc1ccc(CCOc2ccc(CC3SC(=O)NC3=O)cc2)nc1 [pioglitazone] (first compound 4 µM, partner dose 10 µM) | 84.5%
OCc1c[nH]c2ccccc12 [Indole-3-carbinol] + COc1ccc(-c2ccc3c(N4CCOCC4)nc(N4C[C@@H](C)O[C@@H](C)C4)nc3n2)cc1CO [KU0063794] (first compound 4 µM, partner dose 0.1 µM) | 58.7%
OCc1c[nH]c2ccccc12 [Indole-3-carbinol] + CCCCCCCCCCCC1=C(O)C(=O)C=C(O)C1=O [Embelin] (first compound 4 µM, partner dose 6 µM) | 85.1%

Structure (SMILES) | cell count
Clc1ccc(Nc2nnc(Cc3ccncc3)c3ccccc23)cc1 [vatalanib] + CCCCCCCCCCCC1=C(O)C(=O)C=C(O)C1=O [Embelin] (first compound 10 µM, partner dose 6 µM) | 70.9%
Clc1ccc(Nc2nnc(Cc3ccncc3)c3ccccc23)cc1 [vatalanib] + c1cc(-c2cnn3cc(-c4ccc(OCCN5CCCCC5)cc4)cnc23)ccn1 [Dorsomorphin] (first compound 10 µM, partner dose 2 µM) | 56.7%
Clc1ccc(Nc2nnc(Cc3ccncc3)c3ccccc23)cc1 [vatalanib] + CCc1ccc(CCOc2ccc(CC3SC(=O)NC3=O)cc2)nc1 [pioglitazone] (first compound 10 µM, partner dose 10 µM) | 78%
OCc1c[nH]c2ccccc12 [Indole-3-carbinol] + COC(=O)c1sccc1S(=O)(=O)Nc1ccc(Nc2ccccc2)cc1OC [GSK0660] (first compound 4 µM, partner dose 5 µM) | 117%
Clc1ccc(Nc2nnc(Cc3ccncc3)c3ccccc23)cc1 [vatalanib] + O=C(Nc1ccccc1)c1cc([N+](=O)[O-])ccc1Cl [GW9662] (first compound 10 µM, partner dose 10 µM) | 60.3%
OCc1c[nH]c2ccccc12 [Indole-3-carbinol] + c1cc(-c2cnn3cc(-c4ccc(OCCN5CCCCC5)cc4)cnc23)ccn1 [Dorsomorphin] (first compound 4 µM, partner dose 2 µM) | 67.9%
OCc1c[nH]c2ccccc12 [Indole-3-carbinol] + O=c1cc(-c2cccc3c2Sc2ccccc2S3)oc(N2CCOCC2)c1 [KU55933] (first compound 4 µM, partner dose 5 µM) | 71.4%
OCc1c[nH]c2ccccc12 [Indole-3-carbinol] + COc1cc2ncnc(Nc3ccc(Oc4ccccc4)cc3)c2cc1OC [SrcI1] (first compound 4 µM, partner dose 10 µM) | 79.8%
OCc1c[nH]c2ccccc12 [Indole-3-carbinol] + Cn1cc(/C=C2\C(=O)Nc3cccnc32)c2ccccc21 [GW441756] (first compound 4 µM, partner dose 2 µM) | 62.5%
OCc1c[nH]c2ccccc12 [Indole-3-carbinol] + Oc1nc(-c2ccc(C(F)(F)F)cc2)nc2c1CSCC2 [XAV939] (first compound 4 µM, partner dose 10 µM) | 78.8%
Clc1ccc(Nc2nnc(Cc3ccncc3)c3ccccc23)cc1 [vatalanib] + N#Cc1c(O)c2c(-c3ccc(-c4ccccc4O)cc3)csc2[nH]c1=O [A769662] (first compound 10 µM, partner dose 10 µM) | 73.6%
Clc1ccc(Nc2nnc(Cc3ccncc3)c3ccccc23)cc1 [vatalanib] + O=C(O)C(=O)Nc1sc2c(c1C(=O)O)CCNC2 [TCS401] (first compound 10 µM, partner dose 8.33333 µM) | 75.8%
Clc1ccc(Nc2nnc(Cc3ccncc3)c3ccccc23)cc1 [vatalanib] + COc1ccc(-c2ccc3c(N4CCOCC4)nc(N4C[C@@H](C)O[C@@H](C)C4)nc3n2)cc1CO [KU0063794] (first compound 10 µM, partner dose 0.1 µM) | 58.1%
Clc1ccc(Nc2nnc(Cc3ccncc3)c3ccccc23)cc1 [vatalanib] + CC(C)CCN1c2nc(Nc3cc(F)c(O)c(F)c3)ncc2N(C)C(=O)C1C [BID1870] (first compound 10 µM, partner dose 1 µM) | 69.2%
OCc1c[nH]c2ccccc12 [Indole-3-carbinol] + O=C(Nc1ccccc1)c1cc([N+](=O)[O-])ccc1Cl [GW9662] (first compound 4 µM, partner dose 10 µM) | 72.6%
Clc1ccc(Nc2nnc(Cc3ccncc3)c3ccccc23)cc1 [vatalanib] + Oc1nc(-c2ccc(C(F)(F)F)cc2)nc2c1CSCC2 [XAV939] (first compound 10 µM, partner dose 10 µM) | 65.8%
Clc1ccc(Nc2nnc(Cc3ccncc3)c3ccccc23)cc1 [vatalanib] + O=C1NC(=O)/C(=C/c2ccc(-c3ccc(F)cc3O)o2)S1 [AS252424] (first compound 10 µM, partner dose 5 µM) | 68.2%
Nc1cccc2c1CN(C1CCC(=O)NC1=O)C2=O (stereo unspecified) [lenalidomide] + COc1cc2c(Oc3ccc4[nH]c(C)cc4c3F)ncnc2cc1OCCCN1CCCC1 [cediranib] (first compound 5 µM, partner dose 2 µM) | 87.1%
